# Source: the supplement of paper PMC8728848
# This is one part of the list.
# How the values were obtained:
# Experiment in all cases: glycan array binding signal (z-score within array); higher = stronger binding
# Conditions in all cases: glycan notation: IUPAC condensed, linker removed
# [1] = target: Neu5Ac(a2-6)Gal(b1-4)GlcNAc(b1-2)Man(a1-3)[GlcNAc(b1-4)][Neu5Ac(a2-6)Gal(b1-4)GlcNAc(b1-2)Man(a1-6)]Man(b1-4)GlcNAc(b1-4)GlcNAc
# Procedure, shortened: (§1)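 The Consortium for Functional Glycomics database supplied 3228 glycan arrays, of which those lacking an available protein sequence were dropped. The binding signal, a within-array Z-score, was averaged across arrays of the same protein sequence and across linkers. Negative scores can be read as non-binding.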
# [2] = target: Neu5Ac(a2-6)Gal(b1-4)GlcNAc(b1-2)Man(a1-3)[Man(a1-6)]Man(b1-4)GlcNAc(b1-4)GlcNAc
# Procedure, shortened: as §1
# [3] = target: Neu5Ac(a2-6)Gal(b1-4)GlcNAc(b1-2)Man(a1-3)[Neu5Ac(a2-3)Gal(b1-4)GlcNAc(b1-2)Man(a1-6)]Man(b1-4)GlcNAc(b1-4)GlcNAc
# Procedure, shortened: as §1
# [4] = target: Neu5Ac(a2-6)Gal(b1-4)GlcNAc(b1-2)Man(a1-3)[Neu5Ac(a2-6)Gal(b1-4)GlcNAc(b1-2)Man(a1-6)]Man(b1-4)GlcNAc(b1-4)GlcNAc
# Procedure, shortened: as §1
# [5] = target: Neu5Ac(a2-6)Gal(b1-4)GlcNAc(b1-2)Man(a1-3)[Neu5Ac(a2-6)Gal(b1-4)GlcNAc(b1-2)Man(a1-6)]Man(b1-4)GlcNAc(b1-4)[Fuc(a1-6)]GlcNAc
# Procedure, shortened: as §1
# [6] = target: Neu5Ac(a2-6)Gal(b1-4)GlcNAc(b1-2)Man(a1-6)Man(b1-4)GlcNAc(b1-4)GlcNAc
# Procedure, shortened: as §1
# [7] = target: Neu5Ac(a2-6)Gal(b1-4)GlcNAc(b1-2)Man(a1-6)[Gal(b1-4)GlcNAc(b1-2)Man(a1-3)]Man(b1-4)GlcNAc(b1-4)GlcNAc
# Procedure, shortened: as §1
# [8] = target: Neu5Ac(a2-6)Gal(b1-4)GlcNAc(b1-2)Man(a1-6)[GlcNAc(b1-2)Man(a1-3)]Man(b1-4)GlcNAc(b1-4)GlcNAc
# Procedure, shortened: as §1
# [9] = target: Neu5Ac(a2-6)Gal(b1-4)GlcNAc(b1-2)Man(a1-6)[Man(a1-3)]Man(b1-4)GlcNAc(b1-4)GlcNAc
# Procedure, shortened: as §1
# [10] = target: Neu5Ac(a2-6)Gal(b1-4)GlcNAc(b1-2)[Neu5Ac(a2-6)Gal(b1-4)GlcNAc(b1-4)]Man(a1-3)[GlcNAc(b1-4)][Neu5Ac(a2-6)Gal(b1-4)GlcNAc(b1-2)[Neu5Ac(a2-6)Gal(b1-4)GlcNAc(b1-6)]Man(a1-6)]Man(b1-4)GlcNAc(b1-4)GlcNAc
# Procedure, shortened: as §1
# [11] = target: Neu5Ac(a2-6)Gal(b1-4)GlcNAc(b1-2)[Neu5Ac(a2-6)Gal(b1-4)GlcNAc(b1-4)]Man(a1-3)[GlcNAc(b1-4)][Neu5Ac(a2-6)Gal(b1-4)GlcNAc(b1-4)Man(a1-6)]Man(b1-4)GlcNAc(b1-4)GlcNAc
# Procedure, shortened: as §1
# [12] = target: Neu5Ac(a2-6)Gal(b1-4)GlcNAc(b1-2)[Neu5Ac(a2-6)Gal(b1-4)GlcNAc(b1-6)]Man(a1-6)[Neu5Ac(a2-6)Gal(b1-4)GlcNAc(b1-2)Man(a1-3)][GlcNAc(b1-4)]Man(b1-4)GlcNAc(b1-4)GlcNAc
# Procedure, shortened: as §1
# [13] = target: Neu5Ac(a2-6)Gal(b1-4)GlcNAc(b1-3)Gal(b1-3)GlcNAc
# Procedure, shortened: as §1
# [14] = target: Neu5Ac(a2-6)Gal(b1-4)GlcNAc(b1-3)Gal(b1-4)GlcNAc
# Procedure, shortened: as §1
# [15] = target: Neu5Ac(a2-6)Gal(b1-4)GlcNAc(b1-3)Gal(b1-4)GlcNAc(b1-2)Man(a1-3)[Neu5Ac(a2-6)Gal(b1-4)GlcNAc(b1-3)Gal(b1-4)GlcNAc(b1-2)Man(a1-6)]GalNAc
# Procedure, shortened: as §1
# [16] = target: Neu5Ac(a2-6)Gal(b1-4)GlcNAc(b1-3)Gal(b1-4)GlcNAc(b1-3)Gal(b1-4)GlcNAc
# Procedure, shortened: as §1
# [17] = target: Neu5Ac(a2-6)Gal(b1-4)GlcNAc(b1-3)Gal(b1-4)GlcNAc(b1-3)Gal(b1-4)GlcNAc(b1-2)Man(a1-3)[Neu5Ac(a2-6)Gal(b1-4)GlcNAc(b1-3)Gal(b1-4)GlcNAc(b1-3)Gal(b1-4)GlcNAc(b1-2)Man(a1-6)]GalNAc
# Procedure, shortened: as §1
# [18] = target: Neu5Ac(a2-6)Gal(b1-4)GlcNAc(b1-3)Gal(b1-4)GlcNAc(b1-3)GalNAc
# Procedure, shortened: as §1
# [19] = target: Neu5Ac(a2-6)Gal(b1-4)GlcNAc(b1-3)Gal(b1-4)GlcNAc(b1-3)[Neu5Ac(a2-6)Gal(b1-4)GlcNAc(b1-3)Gal(b1-4)GlcNAc(b1-6)]GalNAc
# Procedure, shortened: as §1
# [20] = target: Neu5Ac(a2-6)Gal(b1-4)GlcNAc(b1-3)Gal(b1-4)GlcNAc(b1-6)[Gal(b1-3)]GalNAc
# Procedure, shortened: as §1
# [21] = target: Neu5Ac(a2-6)Gal(b1-4)GlcNAc(b1-3)Gal(b1-4)[Fuc(a1-3)]GlcNAc(b1-3)Gal(b1-4)[Fuc(a1-3)]GlcNAc
# Procedure, shortened: as §1
# [22] = target: Neu5Ac(a2-6)Gal(b1-4)GlcNAc(b1-3)GalNAc
# Procedure, shortened: as §1
# [23] = target: Neu5Ac(a2-6)Gal(b1-4)GlcNAc(b1-3)[Neu5Ac(a2-6)Gal(b1-4)GlcNAc(b1-6)]GalNAc
# Procedure, shortened: as §1
# [24] = target: Neu5Ac(a2-6)Gal(b1-4)GlcNAc(b1-6)GalNAc
# Procedure, shortened: as §1
# [25] = target: Neu5Ac(a2-6)Gal(b1-4)GlcNAc(b1-6)[Gal(b1-3)GlcNAc(b1-3)]Gal(b1-4)Glc
# Procedure, shortened: as §1
# [26] = target: Neu5Ac(a2-6)Gal(b1-4)GlcNAc(b1-6)[Gal(b1-3)]GalNAc
# Procedure, shortened: as §1
# [27] = target: Neu5Ac(a2-6)Gal(b1-4)GlcNAc6S
# Procedure, shortened: as §1
# [28] = target: Neu5Ac(a2-6)GalNAc
# Procedure, shortened: as §1
# [29] = target: Neu5Ac(a2-6)GalNAc(b1-4)GlcNAc
# Procedure, shortened: as §1
# [30] = target: Neu5Ac(a2-6)GalNAc(b1-4)GlcNAc6S
# Procedure, shortened: as §1
# [31] = target: Neu5Ac(a2-6)GlcNAc(b1-4)GlcNAc
# Procedure, shortened: as §1
binder,measurement,setting,value
DrGal3 (Danio rerio) (protein) MDLSDALDAPPQQNNQQAGGPVWPGQPANPVWPGQPANPTWPGQPNQPAWPGQPNQQWPGQPGQPTAPGWPGPAPQTGPYGAPGQAPQVLTVPLDFPLQNGAYNKMLITINGEVKPNAKQFTVNLRRGNDIAFHINPRFSEGGKPVIVRNSMIGNNWGREERELPSFPFVPGKPFEMKILITDTEYKVAVNKSHLLEFKHRVFELNQITGLSIYNDVTLSTVNVETLQ,glycan array binding signal (z-score),[1],-0.3
same,glycan array binding signal (z-score),[2],-0.226
same,glycan array binding signal (z-score),[3],-0.257
same,glycan array binding signal (z-score),[4],-0.217
same,glycan array binding signal (z-score),[5],-0.117
same,glycan array binding signal (z-score),[6],-0.237
same,glycan array binding signal (z-score),[7],-0.241
same,glycan array binding signal (z-score),[8],-0.251
same,glycan array binding signal (z-score),[9],-0.232
same,glycan array binding signal (z-score),[10],-0.226
same,glycan array binding signal (z-score),[11],-0.234
same,glycan array binding signal (z-score),[12],-0.246
same,glycan array binding signal (z-score),[13],-0.125
same,glycan array binding signal (z-score),[14],-0.25
same,glycan array binding signal (z-score),[15],0.608
same,glycan array binding signal (z-score),[16],0.971
same,glycan array binding signal (z-score),[17],1.15
same,glycan array binding signal (z-score),[18],-0.209
same,glycan array binding signal (z-score),[19],-0.107
same,glycan array binding signal (z-score),[20],-0.184
same,glycan array binding signal (z-score),[21],-0.257
same,glycan array binding signal (z-score),[22],-0.19
same,glycan array binding signal (z-score),[23],-0.219
same,glycan array binding signal (z-score),[24],-0.143
same,glycan array binding signal (z-score),[25],-0.272
same,glycan array binding signal (z-score),[26],-0.249
same,glycan array binding signal (z-score),[27],-0.273
same,glycan array binding signal (z-score),[28],-0.26
same,glycan array binding signal (z-score),[29],-0.264
same,glycan array binding signal (z-score),[30],-0.284
same,glycan array binding signal (z-score),[31],-0.24
